Source: publication PMC4336329 (PLoS ONE, 2015)
The campaign covered roughly 310,000 compounds. About 2,200 (0.71%) showed an effect of 50% or more. The effect is printed as a negative number. This is one part of the list.

target: human ether-à-go-go-related gene (hERG) potassium channel (human, UniProt Q12809); experiment: primary screen, population patch clamp on CHO cells stably expressing hERG
Sequence (Q12809 whole entry, looked up): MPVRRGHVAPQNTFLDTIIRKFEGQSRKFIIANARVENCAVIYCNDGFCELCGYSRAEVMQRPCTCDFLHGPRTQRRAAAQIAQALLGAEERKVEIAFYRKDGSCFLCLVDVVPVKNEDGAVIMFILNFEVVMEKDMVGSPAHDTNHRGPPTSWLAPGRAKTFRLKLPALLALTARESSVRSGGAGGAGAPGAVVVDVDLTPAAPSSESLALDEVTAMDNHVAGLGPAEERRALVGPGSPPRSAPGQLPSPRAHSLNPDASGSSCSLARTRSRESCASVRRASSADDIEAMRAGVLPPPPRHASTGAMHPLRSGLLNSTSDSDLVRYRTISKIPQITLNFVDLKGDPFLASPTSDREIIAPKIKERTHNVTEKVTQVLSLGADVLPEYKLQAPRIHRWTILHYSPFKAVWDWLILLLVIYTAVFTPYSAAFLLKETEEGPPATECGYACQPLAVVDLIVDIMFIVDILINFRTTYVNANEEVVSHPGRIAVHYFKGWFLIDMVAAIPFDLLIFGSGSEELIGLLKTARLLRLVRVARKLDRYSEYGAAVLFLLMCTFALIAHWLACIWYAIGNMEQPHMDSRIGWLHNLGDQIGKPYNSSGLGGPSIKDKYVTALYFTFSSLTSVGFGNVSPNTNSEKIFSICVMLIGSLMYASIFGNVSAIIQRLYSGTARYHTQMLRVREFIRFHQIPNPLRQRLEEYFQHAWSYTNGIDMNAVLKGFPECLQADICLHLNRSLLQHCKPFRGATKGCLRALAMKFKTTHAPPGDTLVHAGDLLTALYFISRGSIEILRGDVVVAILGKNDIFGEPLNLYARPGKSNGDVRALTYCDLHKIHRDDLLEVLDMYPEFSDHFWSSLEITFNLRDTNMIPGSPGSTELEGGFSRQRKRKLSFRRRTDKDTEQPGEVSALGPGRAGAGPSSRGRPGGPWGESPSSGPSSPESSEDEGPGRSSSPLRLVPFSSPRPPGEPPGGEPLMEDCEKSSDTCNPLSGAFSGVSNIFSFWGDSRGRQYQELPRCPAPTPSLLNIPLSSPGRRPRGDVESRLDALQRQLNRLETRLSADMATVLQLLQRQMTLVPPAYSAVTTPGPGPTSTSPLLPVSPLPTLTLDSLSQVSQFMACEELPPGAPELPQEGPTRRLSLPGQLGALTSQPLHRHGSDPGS

| Structure (SMILES) | hERG current change (%, negative = inhibition) at 1uM [%] |
| --- | --- |
| CCCCOc1ccc(S(=O)(=O)Nc2cccnc2)cc1 | 2.57 |
| C/C(=N\NC(=O)COc1ccc([N+](=O)[O-])cc1)C(C)(C)C | 10.3 |
| Cc1ccccc1[N+](=O)[O-] | 1.69 |
| CC1CCC2(CC1)NC(=O)N(CC(=O)Nc1ccc3c(c1)OCCCO3)C2=O (centres unmarked) | 6.19 |
| CC(C)[C@@H](C(=O)NC1CC1)N1C(=O)N2CCc3c([nH]c4ccccc34)[C@@]2(C)C1=O | 6.22 |
| CCCCNC(=O)C1CCC(CNc2c(N3CCC(C)CC3)c(=O)c2=O)CC1 (centres unmarked) | 15.1 |
| CCOc1ccc(Cn2c(C)nc([N+](=O)[O-])c2SCC(O)CCl)cc1[N+](=O)[O-] (centres unmarked) | -30.3 |
| Cc1ccc(S(=O)(=O)N2CCN(c3ccc([N+](=O)[O-])cn3)CC2)cc1 | 9.64 |
| COc1ccc(Br)cc1/C=N/NC(=O)C[n+]1ccccc1.[Cl-] | 6.88 |
| Cc1nn(C)c(C)c1S(=O)(=O)N(CC(=O)Nc1nccs1)c1ccc(C(C)C)cc1 | 12.4 |
| Cn1nc(C(C)(C)C)c(NC(=O)c2ccc(F)cc2)c1C(C)(C)C | 13.1 |
| COc1cc(NC(=O)CSc2nnc(-c3ccncc3)n2C2CCCCC2)ccc1NC(=O)c1ccco1 | 5.36 |
| CCN(CC(=O)Nc1ccc(OC)cc1)C(=O)c1ccc2c(=O)n3c(nc2c1)CCC3 | 14.1 |
| CCOC(=O)C1(CCOC)CCN(C(=O)Cc2ccsc2)CC1 | 11.3 |
| Cc1ccc(N/N=C(\C#N)C(=N)N2CCCCCC2)cc1 | 11.3 |
| CCCCN(C(=O)COC(=O)c1ccc(C=O)cc1)c1c(N)n(CCC)c(=O)[nH]c1=O | 11 |
| C#CCOCCOCCOCCNc1nc(N2CCN(C(=O)[C@H]([C@@H](C)CC)n3cc([C@@H](N)Cc4ccc(O)cc4)nn3)CC2)nc(N2CCN(C(=O)[C@H](CCCCN)n3cc([C@@H](N)CC(C)C)nn3)CC2)n1.Cl | 11.4 |
| CC(C)OCCCn1c(=N)c(C(N)=S)cc2c(=O)n3ccccc3nc21 | -74.5 |
| CCc1ccc(Nc2nc(N)nc(CSc3nc4ccccc4s3)n2)cc1 | 11.8 |
| O=C(NCCC(=O)N1CCC2(CC1)NCCc1[nH]cnc12)c1ccc(Br)cc1 | 22.5 |
| CC(=O)NC1CCN(C(=O)N2CCCC2)CC1 | -2.09 |
| Cc1cc(-n2c(SCCC#N)nnc2-c2cccnc2)ccc1Cl | -20 |

| Structure (SMILES) | hERG current change (%, negative = inhibition) at 1uM [%] |
| --- | --- |
| CN(C)S(=O)(=O)c1ccc(N2CCCC2)c(C(=O)N2CCN(S(=O)(=O)c3ccc(F)cc3)CC2)c1 | -0.883 |
| CN(CC(=O)NCc1ccccc1Cl)CC(=O)Nc1cccc(F)c1 | -6.41 |
| CC(C)C(NC(=O)c1ccco1)C(=O)NC1CCCCCC1 (centres unmarked) | 11.7 |
| CC(NC(=O)C1CCCN(S(=O)(=O)c2ccc(-n3cnnn3)cc2)C1)c1ccc(F)cc1 (centres unmarked) | 9.25 |
| CC(C)(C)Nc1nc(OCC#N)nc(N2CCCCC2)n1 | -11.3 |
| Clc1ccc(Cn2nnc3ccccc32)cc1 | 12 |
| CC(C)Oc1ccc2nnnn2n1 | 10.4 |
| Cc1cc2c(nn1)CCc1nonc1-2 | 4.35 |
| Cc1nc(CS(=O)(=O)c2ccccn2)sc1C(=O)NNC(=O)c1ccc(Cl)cc1 | 8.65 |
| NC(=O)c1ccc(NC(=O)C2CCCC2)cc1 | 15.2 |
| CCCN(Cc1cc2ccc(C)cc2[nH]c1=O)S(=O)(=O)c1ccccc1 | 12.1 |
| CC(C)Cc1nnc(NC(=O)CCC(=O)NC2CCCCC2)s1 | 17.2 |
| Cc1cc(C)nc(SCc2csc(N)n2)n1 | 12.4 |
| CCOC(=O)C1CCN(S(=O)(=O)c2ccc3c(c2)N(C)C(=O)CC(=O)N3C)CC1 | -0.306 |
| CC(O)Cn1nc([N+](=O)[O-])nc1N (centres unmarked) | 9.07 |
| CCN1CCC(O)(C#Cc2ccccc2)CC1 | 12.6 |
| Cc1ccc(CS(=O)(=O)CCC(=O)NCCCN2CCCC2)cc1 | 15.8 |
| O=C(Nc1ccc(Cl)cc1C(=O)NCc1cccnc1)c1ccco1 | 12.6 |
| COCCCn1c(SCC(=O)Nc2cccc(C(=O)OC)c2)nnc1-c1ccncc1 | 5.52 |
| Cc1c(C(=O)Nc2nc3ccccc3[nH]2)oc2ccccc12 | 9.01 |
| CCc1nnc(NC(=O)CSc2nnc(CNC(=O)c3ccc(OC)c(OC)c3)o2)s1 | 4.52 |
| CC(=O)Nc1ccc2nc(NC(=O)COc3ccccc3)sc2c1 | 11.5 |
